The values that follow come from PMC4752459.

Chains of the proteins cited; added tags and fusions are not shown. Lines headed by an entry give the natural chain unless they say otherwise; changes in a name come on top.
UniProt P32458: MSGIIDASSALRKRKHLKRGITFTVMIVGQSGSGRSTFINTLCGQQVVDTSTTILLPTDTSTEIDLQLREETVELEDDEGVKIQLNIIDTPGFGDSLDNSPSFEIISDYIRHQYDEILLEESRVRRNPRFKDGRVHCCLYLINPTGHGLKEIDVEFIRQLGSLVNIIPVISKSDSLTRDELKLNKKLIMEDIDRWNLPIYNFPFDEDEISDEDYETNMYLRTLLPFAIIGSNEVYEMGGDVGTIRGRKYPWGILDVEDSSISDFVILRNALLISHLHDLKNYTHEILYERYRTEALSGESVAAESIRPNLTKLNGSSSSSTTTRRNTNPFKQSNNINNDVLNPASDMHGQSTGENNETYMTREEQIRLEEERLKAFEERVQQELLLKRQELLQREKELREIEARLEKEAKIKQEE
UniProt P32468: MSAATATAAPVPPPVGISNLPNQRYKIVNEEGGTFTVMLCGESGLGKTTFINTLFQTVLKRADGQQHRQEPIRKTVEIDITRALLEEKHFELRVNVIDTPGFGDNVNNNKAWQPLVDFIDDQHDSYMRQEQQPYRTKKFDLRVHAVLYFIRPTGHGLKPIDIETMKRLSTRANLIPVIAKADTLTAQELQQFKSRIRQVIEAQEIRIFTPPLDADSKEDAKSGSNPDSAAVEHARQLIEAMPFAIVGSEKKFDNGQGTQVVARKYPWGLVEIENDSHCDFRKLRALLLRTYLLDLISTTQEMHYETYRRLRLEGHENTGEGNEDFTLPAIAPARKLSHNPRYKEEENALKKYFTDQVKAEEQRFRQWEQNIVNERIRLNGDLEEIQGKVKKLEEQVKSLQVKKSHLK
UniProt P32457: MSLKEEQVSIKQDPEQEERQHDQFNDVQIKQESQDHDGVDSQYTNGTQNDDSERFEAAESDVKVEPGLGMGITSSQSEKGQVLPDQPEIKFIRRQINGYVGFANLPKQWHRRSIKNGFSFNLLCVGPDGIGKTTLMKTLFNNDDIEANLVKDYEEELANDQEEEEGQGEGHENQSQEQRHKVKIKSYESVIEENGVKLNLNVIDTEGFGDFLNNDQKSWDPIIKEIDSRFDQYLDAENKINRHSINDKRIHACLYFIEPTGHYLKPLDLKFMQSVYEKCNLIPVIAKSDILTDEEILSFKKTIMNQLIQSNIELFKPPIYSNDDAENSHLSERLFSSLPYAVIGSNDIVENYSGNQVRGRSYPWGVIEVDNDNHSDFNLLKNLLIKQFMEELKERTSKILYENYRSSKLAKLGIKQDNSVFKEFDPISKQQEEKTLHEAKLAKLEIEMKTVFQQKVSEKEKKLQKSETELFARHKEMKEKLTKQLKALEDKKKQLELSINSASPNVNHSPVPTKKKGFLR
UniProt P25342: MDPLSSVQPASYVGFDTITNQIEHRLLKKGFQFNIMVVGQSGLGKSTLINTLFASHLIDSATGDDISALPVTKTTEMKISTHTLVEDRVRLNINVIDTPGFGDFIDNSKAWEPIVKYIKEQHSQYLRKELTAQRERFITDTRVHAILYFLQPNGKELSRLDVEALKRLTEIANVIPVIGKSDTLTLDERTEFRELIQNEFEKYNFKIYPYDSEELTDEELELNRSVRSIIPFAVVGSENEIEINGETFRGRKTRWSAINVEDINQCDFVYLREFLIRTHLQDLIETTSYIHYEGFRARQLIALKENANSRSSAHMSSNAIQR
UniProt P25558: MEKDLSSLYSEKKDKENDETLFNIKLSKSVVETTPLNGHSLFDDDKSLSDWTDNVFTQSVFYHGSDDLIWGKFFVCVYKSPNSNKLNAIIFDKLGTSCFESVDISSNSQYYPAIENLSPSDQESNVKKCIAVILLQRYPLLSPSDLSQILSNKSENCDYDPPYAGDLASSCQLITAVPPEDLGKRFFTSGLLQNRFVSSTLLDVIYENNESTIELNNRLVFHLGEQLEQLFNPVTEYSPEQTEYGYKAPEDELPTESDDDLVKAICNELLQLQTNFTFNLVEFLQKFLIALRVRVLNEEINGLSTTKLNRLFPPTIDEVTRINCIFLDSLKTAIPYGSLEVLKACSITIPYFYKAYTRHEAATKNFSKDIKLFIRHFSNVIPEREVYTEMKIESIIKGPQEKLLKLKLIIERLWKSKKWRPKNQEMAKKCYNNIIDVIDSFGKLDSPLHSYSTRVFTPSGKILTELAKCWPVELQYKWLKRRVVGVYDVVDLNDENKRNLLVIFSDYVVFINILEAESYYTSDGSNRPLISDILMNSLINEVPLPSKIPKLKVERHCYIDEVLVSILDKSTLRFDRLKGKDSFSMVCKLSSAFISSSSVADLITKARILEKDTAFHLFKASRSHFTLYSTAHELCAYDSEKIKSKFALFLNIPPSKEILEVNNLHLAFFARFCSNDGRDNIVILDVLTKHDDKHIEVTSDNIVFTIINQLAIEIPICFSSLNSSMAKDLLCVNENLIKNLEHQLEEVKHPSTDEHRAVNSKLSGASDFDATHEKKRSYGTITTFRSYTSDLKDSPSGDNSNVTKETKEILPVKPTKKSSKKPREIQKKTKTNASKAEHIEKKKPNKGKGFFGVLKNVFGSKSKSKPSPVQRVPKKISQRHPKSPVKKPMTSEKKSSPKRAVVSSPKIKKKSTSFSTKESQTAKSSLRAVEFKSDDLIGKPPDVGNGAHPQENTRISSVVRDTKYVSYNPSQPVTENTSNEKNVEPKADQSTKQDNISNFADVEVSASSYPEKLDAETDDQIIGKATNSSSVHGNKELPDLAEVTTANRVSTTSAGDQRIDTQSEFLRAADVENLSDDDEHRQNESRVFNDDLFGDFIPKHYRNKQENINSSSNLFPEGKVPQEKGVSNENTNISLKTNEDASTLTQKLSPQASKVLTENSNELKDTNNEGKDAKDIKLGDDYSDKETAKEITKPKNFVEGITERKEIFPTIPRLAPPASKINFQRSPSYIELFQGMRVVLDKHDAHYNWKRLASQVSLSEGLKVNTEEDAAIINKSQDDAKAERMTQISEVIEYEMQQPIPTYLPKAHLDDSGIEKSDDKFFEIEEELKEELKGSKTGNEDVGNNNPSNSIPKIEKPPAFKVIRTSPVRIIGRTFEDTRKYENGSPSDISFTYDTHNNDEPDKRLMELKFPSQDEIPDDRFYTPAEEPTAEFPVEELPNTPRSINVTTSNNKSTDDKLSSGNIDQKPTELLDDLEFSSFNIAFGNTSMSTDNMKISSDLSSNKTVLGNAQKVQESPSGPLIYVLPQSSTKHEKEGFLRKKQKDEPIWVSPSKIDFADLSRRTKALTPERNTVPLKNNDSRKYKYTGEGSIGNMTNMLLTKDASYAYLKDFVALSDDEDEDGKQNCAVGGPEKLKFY

These are yes or no findings as the source states them, for the method shown. Binding seen in cells or lysates may run through a third protein. Some entries that bind do so weakly or less than the wild type.

Experiment [1] concerns the target recombinant SNAP-tagged yeast septin rods (S. cerevisiae) (UniProt P32458+P32468+P32457+P25342). The experiment can be described thus: pull-down; SNAP-tagged septin rods coupled to benzylguanine-Sepharose, blocked with BSA, incubated with yeast extract 2 h at 8°C; 50 mM Tris pH 8.0, 300 mM NaCl; 6his-SNAP beads as control; Western blot with anti-protein A or anti-GFP; only the target purified. A general note: A western blot detects proteins with antibodies after separation by electrophoresis.

Experiment [2] has as its target T1, Shs1-CCG (S. cerevisiae) (UniProt Q07657).
T1 sequence: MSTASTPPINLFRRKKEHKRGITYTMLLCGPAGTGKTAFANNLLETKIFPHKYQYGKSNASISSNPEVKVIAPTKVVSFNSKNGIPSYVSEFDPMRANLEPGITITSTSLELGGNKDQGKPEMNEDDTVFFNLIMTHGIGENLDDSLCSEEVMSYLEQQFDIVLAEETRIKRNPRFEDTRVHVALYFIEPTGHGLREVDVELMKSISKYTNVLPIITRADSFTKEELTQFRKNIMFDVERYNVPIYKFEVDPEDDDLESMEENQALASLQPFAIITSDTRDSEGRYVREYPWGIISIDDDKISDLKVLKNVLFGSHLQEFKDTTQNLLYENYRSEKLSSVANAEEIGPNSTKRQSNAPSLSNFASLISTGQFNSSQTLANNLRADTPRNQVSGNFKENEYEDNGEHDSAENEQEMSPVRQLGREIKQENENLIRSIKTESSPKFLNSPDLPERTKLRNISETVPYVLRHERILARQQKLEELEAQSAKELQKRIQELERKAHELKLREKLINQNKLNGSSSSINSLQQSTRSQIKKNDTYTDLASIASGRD
The experiment can be described thus: split reporter; time resolved SPLIFF after fusion of Nub-fusion and Shs1-CCG expressing cells; imaging every 3 min, 100 μM Cu2+, 30°C.

Experiment [3] concerns the target T1, Shs1-CCG (S. cerevisiae). The experiment can be described thus: split reporter; steady-state SPLIFF (split-ubiquitin, mCherry-Cub-GFP): diploid cells with Shs1-CCG and a Nub fusion, 100 μM Cu2+, GFP/mCherry ratio at the bud neck; strong > 70%, weak > 30%, below 30% CCG to CC conversion non-interacting.

For the molecule Bud3-TAP (from UniProt P25558 1-1636), the binding result in experiment [1] is recorded as “binds weakly”.

B1: Nub-Bud4 (protein, UniProt P47136 1-1447)
chain: MHDAESTVDSLLKEIDNEMEQTKSNITQNGSEDTPHNWKLPLQEIGDDTMEMLVKHNTRSNATENSRGRSPSKMSTISNESLNLGLLRVNSELEESPAAVHQERIKNSVANGALGHANSPKVLNNLKNMAQDIDKLARDEEKPVKLSSSPLKFTLKSTQPLLSYPESPIHRSSIEIETNYDDEDEEEEDAYTCLTQSPQILHSPSRIPITNAVSINKLNLDFTLNPNESDKSLVSDTSVDSTGRELDTKTIPELPFCMSSTPEMTPVDEKCNLPSKLLNTSNNSHSDSRSPTASVEDLNISTNLPGADSSQNNPVTTDADALIENDVVRDLQQNMEHIDDAFDEKKVLDEGCSNEPVTFLGENDTRSIVYSNKGTNANVQEFSQEDSLAHSEPKFKDLNATSDDVWNEDKETDANISTSTKSEESYIADYKVTRQEDWDTKKLHQESEHANEQPAIIPQKDSSEETFTELNNESEFQRNFKDGEEYRIVQHEESLYGQRTKSPEENIINGSEIGVDHGEAAEVNEPLAKTSAEEHDLSSSCEDQSVSEARNKDRIEEKEVETKDENIETEKDESEYHKVEENEEPEHVPLLPPLPRWEEIQFNEPFIDENDTSNDSIDLTRSMKPSDYISIWHIQEEEIKSNSPESIANSQFSQQSSITTASTVDSKKDNGSTSFKFKPRIVSRSRIYNPKSRVSSLNYYDNEDYILSNSEWNALDPMRRNTLISKRIQDNIRTQKGHAPLIRPSIMKLNGEDSGFQNHFLEVEQPQEHENIPLSTHLSEQDITTNVGLDEQKLPTNTQDEAEISIREIESAGDITFNRGDLLSLSFDEELGQDFANFLDALDHDSTSFNHGPDDSSSFQRDSSKKSFNSLWESSYELKPPPSIRKQPIAPDVLQKLLESDTKDDADLEKIREERITEPRTGLGIGMLKTPVKDVSIALAASIKGYEASFSDTDSRPEGMNNSDAITLNMFDDFEEDKMTPSTPVRSISPIKRHVSSPFKVVKAGNKQENNEINIKAEEEIEPMTQQETDGLKQDIPPLLAQTKDNVEAKEETITQLEEPQDVEQEFPDMGTLYLSIKAISTLALYGTKSHRATYAIVFDNGENVVQTPWESLPYDGNIRINKEFELPIDFKGKAETSSASSERDSYKKCVITLKCKYEKPRHELVEIVDKVPVGKSFFGKTKYKFEKKYVQKKPKQDEWDYLFAQDGSFARCEIEINEEFLKNVAFNTSHMHYNMINKWSRIADKIHGSKRLYELPRKAPHKVASLDVEACFLERTSAFEQFPKQFSLVNKIVSKYKLQQNIYKEGYLLQDGGDLKGKIENRFFKLHGSQLSGYHEISRKAKIDINLLKVTKVLRNEDIQADNGGQRNFTDWVLFNECFQLVFDDGERITFNAECSNEEKSDWYNKLQEVVELNVFHQPWVKKYCEKLAEEEKTRTTGHNLKQDFN
On to B1, for which the binding entry in experiment [2] and in experiment [3] was “binds” in each case.
